# Reference: PMC6919601, “Identification of Plasmodium dipeptidyl aminopeptidase allosteric inhibitors by high throughput screening” (PLoS ONE, 2019)
# The whole screen tested about 110,000 compounds, of which about 230 (0.21%) showed an effect of 50% or more. The list shows a part of the results.
# Target: DPAP1 (Plasmodium falciparum, UniProt Q8IIJ9)
# Assay: primary screen, percent inhibition; read by cleavage of a fluorogenic dipeptide substrate; higher = more effect of the substance
# Design: species or system P. falciparum D10 trophozoite lysates; single well
# 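Note: 30 min substrate incubation versus DMSO and 10 µM JCP410 controls.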
# Sequence of DPAP1 (Q8IIJ9 whole entry, looked up): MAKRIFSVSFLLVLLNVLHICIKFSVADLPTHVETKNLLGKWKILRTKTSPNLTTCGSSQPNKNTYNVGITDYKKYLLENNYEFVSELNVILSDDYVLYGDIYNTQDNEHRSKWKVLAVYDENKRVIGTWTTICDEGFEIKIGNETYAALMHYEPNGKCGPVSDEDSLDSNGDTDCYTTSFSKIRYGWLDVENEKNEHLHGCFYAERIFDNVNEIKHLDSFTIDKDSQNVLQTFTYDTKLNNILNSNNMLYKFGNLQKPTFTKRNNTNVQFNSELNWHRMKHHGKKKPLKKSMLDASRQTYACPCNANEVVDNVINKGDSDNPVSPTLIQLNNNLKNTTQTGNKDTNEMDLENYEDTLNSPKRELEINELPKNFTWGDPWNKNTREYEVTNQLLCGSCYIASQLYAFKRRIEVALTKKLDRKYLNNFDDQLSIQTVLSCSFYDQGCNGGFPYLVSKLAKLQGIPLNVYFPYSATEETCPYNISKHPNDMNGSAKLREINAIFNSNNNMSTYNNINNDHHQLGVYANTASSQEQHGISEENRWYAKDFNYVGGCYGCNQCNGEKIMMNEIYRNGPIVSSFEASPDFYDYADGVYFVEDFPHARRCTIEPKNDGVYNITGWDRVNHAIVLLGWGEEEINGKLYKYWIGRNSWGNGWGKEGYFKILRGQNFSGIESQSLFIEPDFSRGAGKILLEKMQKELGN
row,SMILES,% Inhibition @ 10 uM
1,Cc1nnc2c(Oc3ccc(C(C)(C)C)cc3)nc3ccccc3n12,-3.63%
2,CCOC(=O)c1cnc2c(-c3ccc(Cl)cc3)cnn2c1-c1ccccc1,4.74%
3,CC(=O)c1cccc(C(=O)N[C@@H](CSCc2ccccc2)C(=O)NCC#N)c1,-1.83%
4,Cc1cc2nc(COc3cc(C)c(Cl)c(C)c3)cc(=O)n2o1,-0.495%
5,Cc1cc2c(c(=O)n1CC1CCCO1)C(c1ccccc1Br)C(C#N)=C(N)O2 (centres unmarked),3.93%
6,CC1(C)CC2=Nc3ncnn3C(c3ccc(C(C)(C)C)cc3)C2=C(O)C1 (centres unmarked),-0.413%
7,COC(=O)c1ccc(C2C3=C(O)CC(C)(C)CC3=NC(C)=C2C(=O)OCc2ccccc2)cc1 (centres unmarked),7.24%
8,COCC1=Nc2ncnn2C(c2cc(OC)ccc2OC)/C1=C(/O)OC (centres unmarked),1.73%
9,O=C1c2ccccc2C(=O)N1c1cccc(N2C(=O)c3ccccc3C2=O)c1,-4.35%
10,COc1ccc(NS(=O)(=O)c2cc(C(=O)Nc3ccccc3)ccc2OC)cc1,-0.132%
11,Cc1csc(NC(=O)CSc2nnc(Cc3cccn3C)n2-c2ccccc2)n1,-4.97%
12,COc1ccc(C(=O)NCc2ccco2)c(OC)c1,18.5%
13,N#CC1=C(N)OC2=C(C(=O)CC(c3ccco3)C2)C1c1ccc(F)cc1F (centres unmarked),2.32%
14,CC1CCC(NC(=O)CNC(=S)N2CC3CC(C2)c2cccc(=O)n2C3)CC1 (centres unmarked),-5.92%
15,COc1ccc(CCN2CC(C(=O)NCc3ccco3)CC2=O)cc1OC (centres unmarked),-3.58%
16,O=C(c1ccccc1)c1cc2c3c(ccc4c3c1NC=N4)CC2,7.18%
17,N/C(=C\C(=O)C(F)(F)F)c1ccc(Cl)cc1,4.41%
18,O=C(NC1CCN(c2ncccn2)CC1)c1c(F)cccc1F,-1.11%
19,O=C1Sc2ccc(S(=O)(=O)Nc3ccc(O)c4ccccc34)c3cccc1c23,3.29%
20,CCC1(C)N(O)C(C)(C)C(c2ccccc2)=[N+]1[O-] (centres unmarked),3.47%
21,CN(CCc1ccccn1)Cc1ccc(Br)o1,-8.75%
22,Cc1sc(NC(=O)c2ccccc2F)c(C#N)c1C,2.38%
23,O=C1NC(=S)S/C1=C\c1c(NCCO)nc2ccccn2c1=O,3.27%
24,N=C1/C(=C\c2ccc(-c3ccc(Cl)cc3)o2)C(=O)N=C2SC(N3CCCC3)=NN12,1.72%
25,O=C(Nc1ccccc1)N1CCN(C(=O)Nc2ccccc2)CC1,-2.3%

row,SMILES,% Inhibition @ 10 uM
1,COc1ccc(CNC(=O)c2cnn3c2NC(c2ccc(C)cc2)CC3C(F)F)cc1OC (centres unmarked),7.16%
2,Nc1no[n+]([O-])c1C(=O)NCc1nc2ccccc2[nH]1,-2.28%
3,O=C(CN(c1ccc2c(c1)OCCO2)S(=O)(=O)c1ccccc1)NCC1CCCO1 (centres unmarked),-13.8%
4,CN(CCC#N)CC(=O)Nc1cccnc1Cl,-2.19%
5,O=C(c1nc2ccccc2o1)C(NC(=O)[C@H](CS(=O)(=O)Cc1ccccc1)NC(=O)N1CCOCC1)c1cccs1 (some centres unmarked),-3.04%
6,Nc1ccc(C(=O)Nc2ccc(NC(=O)c3ccc(N)cc3)cc2)cc1,-4.26%
7,Cc1cc(C)nc(/N=C(\N)Nc2ccc(Cl)cc2Cl)n1,2.65%
8,Cc1c2cnn(CC(=O)NC(C)c3ccc4c(c3)OCCO4)c(=O)c2c(C)n1Cc1ccccc1 (centres unmarked),5.91%
9,COc1cccc2c(O)c(NC(=O)NC3CCCCCC3)cnc12,0.401%
10,CC1=CC2=NC(=O)/C(=C\c3ccc(F)cc3)C(=N)N2O1,2%
11,O=C(c1ccco1)N1CCCCCC1,-3.82%
12,c1ccc(OCCCN2CCCC2)cc1,-0.546%
13,Cc1ccc(C(=O)c2sc3nc4c(cc3c2N)CCCC4)cc1,-4.94%
14,COc1ccc(NC(=O)COc2cccc(C3(C)NC(=O)NC3=O)c2)cc1 (centres unmarked),4.42%
15,CCc1cc(C(=O)OC)c(NC(=O)CC2S/C(=N\C)N(C)C2=O)s1 (centres unmarked),-1.36%
16,COc1ccc2ccccc2c1/C=C(\C#N)C(=O)NCc1cccc(Cl)c1,1.42%
17,CCCCc1ccc(NC(=O)c2ccc([N+](=O)[O-])o2)cc1,-5.65%
18,COc1cc2c(cc1OC)C(C)N(S(=O)(=O)c1ccccc1)CC2 (centres unmarked),-1.24%
19,O=S(=O)(NCc1ccc2c(c1)OCO2)c1ccccc1F,1.69%
20,Cc1cc(C)cc(OCC(=O)Nc2ccc(S(=O)(=O)Nc3cc(C)on3)cc2)c1,-1.44%
21,CCc1nn(CC(=O)NC(CC)Cc2ccccc2)c(=O)c2cc3sccc3n12 (centres unmarked),-3.35%
22,COc1ccc(C2=C(c3ccc(OC)cc3)OCCO2)cc1,-3.09%
23,CC(=O)c1ccc(N2CCN(Cc3ccccc3)CC2)cc1,1.38%
24,Cc1ccc(S(=O)(=O)N2CCC(C(=O)NCCO)CC2)cc1,-1.51%
25,CC1C2CC(CC1(C)C)N(C(=O)Nc1ccc3nccnc3c1)C2 (centres unmarked),-6.7%

row,SMILES,% Inhibition @ 10 uM
1,COc1cccc(C2C3=C(O)CC(C)(C)CC3=Nc3ccccc3N2C(=O)C(F)(F)F)c1 (centres unmarked),3.05%
2,COc1ccc(-c2nc3c(c(SCC(N)=O)n2)Cc2c(CO)cnc(C)c2O3)cc1,2.75%
3,O=C(CCCCCN1C(=O)c2ccccc2C1=O)N1CCCCC1,2.45%
4,CC1(C)CC(=O)c2sc(NC(=O)c3ccc(N4C(=O)CCC4=O)cc3)nc2C1,-0.171%
5,c1coc(CNC2CN3CCC2CC3)c1 (centres unmarked),1.37%
6,COc1ccc(C(CC(=O)NCc2ccc3c(c2)OCO3)N2Cc3ccccc3C2=O)cc1 (centres unmarked),-5.92%
7,CCOc1cc(C2CC(=O)Nc3nc(SC)nc(O)c32)ccc1OCC(N)=O (centres unmarked),-4.71%
8,CC(=O)N1CCC(=O)N(C(C)=O)c2ccccc21,1.43%
9,O=[N+]([O-])c1cc(C(F)(F)F)ccc1NS(=O)(=O)c1ccccc1,-1.77%
10,CCN1C(=O)C2(C(C#N)=C(N)Oc3[nH]nc(C(C)C)c32)c2ccccc21 (centres unmarked),5.35%
11,Cc1c(-c2nsc(NC(=O)c3cccs3)n2)nnn1-c1ccccc1C(F)(F)F,-3.39%
12,N#Cc1cnn(-c2cc(Oc3ccccc3)ncn2)c1N,-0.105%
13,C#CCN1C(=O)S/C(=C/c2ccc(O)c(OCC)c2)C1=O,0.9%
14,O=C(CCN1C(=O)C2C3CCC(C3)C2C1=O)Nc1ccc(Cl)cc1C(=O)c1ccccc1 (centres unmarked),-1.61%
15,CCOc1ccc(C(=O)C2=C(O)C(=O)N(c3ccccn3)C2c2ccc(C)cc2)c(C)c1 (centres unmarked),-5.63%
16,CC(NC(=O)C(=O)NCCN(C)C)C(c1cccs1)N1CCN(Cc2ccccc2)CC1 (centres unmarked),3.96%
17,O=C(NC1CCCCCC1)c1cnn(-c2ccccc2)c1-n1cccc1,-1.58%
18,CCOC(=O)c1c(C)c(-c2ccccc2)n(CC(=O)NCC2CCCO2)c1C (centres unmarked),1.72%
19,Cc1cc(OCC(=O)Nc2ccc(S(=O)(=O)NC(C)(C)C)cc2)ccc1Cl,-3.65%
20,CCOC(=O)c1sc(C)c(C#N)c1N,3.05%
21,Cc1ccc(C2=CC(c3cccc(F)c3)n3ncnc3N2)cc1 (centres unmarked),4.86%
22,Cc1ccc(C(C)C)c(OCC(=O)Nc2ccc(S(=O)(=O)N3CCC(C)CC3)cc2)c1,-3.49%
23,Cc1ccc(C)c(NC(=O)c2ccc(-c3ccccc3)cc2)c1,-4.04%
24,Cc1ccc(CN(CC(=O)Nc2ccc(C)cc2)S(=O)(=O)c2ccccc2)cc1,3.89%
25,O=Cc1c[nH]c2ccc(S(=O)(=O)N3CCC(Cc4ccccc4)CC3)cc12,5.47%

row,SMILES,% Inhibition @ 10 uM
1,O=C(Nc1cc(N2CCOCC2)ncn1)NC1(C(F)(F)F)Oc2ccc(Cl)cc2O1 (centres unmarked),0.889%
2,CCC1(CC)C(=O)NC(=O)N(Cc2ccccc2)C1=O,1.7%
3,C(=C\c1ccccc1)/CN1CCN(CCc2ccccc2)CC1,1.74%
4,O=S(=O)(c1ccccc1)N1CCN(c2cccc(Cl)c2)CC1,-2.63%
5,O=[N+]([O-])c1cc(CN2CCSCC2)ccc1O,3.15%
6,COc1ccc(C(CC(=O)c2ccccc2)S(=O)(=O)c2ccccc2)cc1 (centres unmarked),-4.74%
7,CCOC(=O)c1sc(NC(=O)Cn2nc(C(F)(F)F)cc2C)c(C(=O)OCC)c1C,10.2%
8,Cc1[nH]c2ccccc2c1C(c1cccnc1)N1CCOCC1 (centres unmarked),-5.35%
9,COc1cccc(-c2cc(N)n(S(=O)(=O)c3ccc(C)cc3)n2)c1,-2.88%
10,Cc1ccc2onc(CNC(=O)N3CCCCC3C)c2c1 (centres unmarked),0.568%
11,COc1ccc(NC(=O)c2sccc2C)c(OC)c1,-13.8%
12,CCCCCCn1c(=O)c(C(=O)Nc2ccc(F)cc2)c(O)c2ccccc21,3.05%
13,Cc1ccc(C(=O)CN2C(C(=O)c3ccccc3)=C(O)c3ccccc3S2(=O)=O)c(C)c1,0.472%
14,COC(=O)c1cc2sc(C)cc2n1CC(=O)N(C)C1CCCCC1,-6.95%
15,CC1=CCC2C(=O)N(c3cc(C)on3)C(=O)C2C1 (centres unmarked),-1.33%
16,N#Cc1ccccc1NC(=O)Nc1ccc(Cl)cc1,0.132%
17,Fc1ccc(C2Nc3ccc(F)cc3C3C=CCC32)cc1 (centres unmarked),16.5%
18,CC(=O)N1N=C(c2ccc(O)cc2)CC1c1ccc(Cl)cc1 (centres unmarked),-1.45%
19,Cc1ccc(/C=C(\NC(=O)c2ccccc2)C(=O)Nc2ccc(Br)cc2)o1,-3.46%
20,COc1ccc(NC(=O)c2ccc(-c3ccccc3)cc2)c([N+](=O)[O-])c1,-1.29%
21,COC(=O)c1cc2oc(C)cc2n1Cc1ccccc1C,-5.72%
22,C=CCN1C(=O)NC(=O)/C(=C\c2ccc3c(c2)OCO3)C1=O,-2%
23,CN1CCN(C(=O)CCCn2sc3ccccc3c2=O)CC1,2.21%
